Assay results: the supplement of paper PMC12217912
The list shows a part of the results. The full chains were built here from the parent and the listed change. Values near 0.05 are background.

B1: TEV protease; numbered along this chain (parent)
chain: MGESLFKGPRDYNPISSSICHLTNESDGHTTSLYGIGFGPFIITNKHLFRRNNGTLVVQSLHGVFKVKDTTTLQQHLVDGRDMIIIRMPKDFPPFPQKLKFREPQREERICLVTTNFQTKSMSSMVSDTSCTFPSGDGIFWKHWIQTKDGQCGSPLVSTRDGFIVGIHSASNFTNTNNYFTSVPKNFMELLTNQEAQQWVSGWRLNADSVLWGGHKVFMVKPEEPFQPVKEATQL

Variants of: B1
Experiment: raw area under fraction-flipped curve 0-4 h after induction (AUC4h, not background-subtracted), DNA-recorder readout of cleavage of the substrate (dimensionless); higher = more cleavage of the substrate by the protease variant
Conditions: temperature: 34 °C; time window: 0-4 h after rhamnose induction
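Further: Bxb1 expression induced with 0.2% (w/v) L-rhamnose at OD600 near 0.5, cultures sampled hourly, flipped fraction per protease–substrate barcode pair counted by paired-end Illumina sequencing.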

Row | Variant | area with substrate ENLDFQS | area with substrate ENLNFQS | area with substrate ENLRFQS | area with substrate ENLEFQS | area with substrate ENLFFQS | area with substrate ENLIFQS | area with substrate ENLKFQS | area with substrate ENLLFQS | area with substrate ENLMFQS | area with substrate ENLPFQS | area with substrate ENLQFQS | area with substrate ENLSFQS | area with substrate ENLGFQS | area with substrate ENLHFQS | area with substrate ENLTFQS | area with substrate ENLWFQS | area with substrate ENLVFQS
1 | D128G | 0.139 | 0.057 | 0.132 |  |  |  |  |  |  |  |  |  |  |  |  |  | 
2 | D128Q | 0.0605 | 0.0646 | 0.0904 | 0.0715 | 0.0922 | 0.119 | 0.0868 | 0.0705 | 0.0857 | 0.0695 | 0.0703 | 0.0786 |  |  |  |  | 
3 | S130R | 0.0567 | 0.0566 |  |  |  | 0.0529 | 0.0939 | 0.0663 |  |  |  | 0.0732 | 0.0573 | 0.0667 | 0.0413 |  | 
4 | P134T | 0.059 | 0.075 |  |  | 0.0627 | 0.0686 |  | 0.0541 |  | 0.0553 |  | 0.0413 |  | 0.0585 |  | 0.0455 | 
5 | G136K | 0.0568 | 0.0648 |  |  | 0.0733 |  |  |  |  |  |  | 0.0286 |  | 0.0717 |  |  | 0.0761
6 | G136V | 0.0713 | 0.0513 |  | 0.0575 | 0.0771 | 0.0728 | 0.0784 | 0.0659 | 0.0597 | 0.0913 | 0.0574 | 0.0485 |  | 0.0644 |  | 0.0666 | 
7 | D137P | 0.0547 |  | 0.079 | 0.0631 |  |  |  | 0.114 |  |  |  | 0.0474 |  | 0.0617 |  |  | 
8 | I145E | 0.0549 | 0.058 | 0.0606 | 0.0676 |  |  |  | 0.0613 |  |  |  |  |  |  |  |  | 
9 | V157G | 0.0564 | 0.0487 | 0.0515 | 0.0444 | 0.0599 | 0.0514 | 0.0584 | 0.0493 |  | 0.0456 |  | 0.0623 |  |  |  |  | 0.0577
10 | T159C | 0.0623 | 0.0553 | 0.0789 |  |  |  | 0.0838 |  |  |  |  | 0.0674 |  |  |  |  | 
11 | R160F | 0.0637 | 0.0752 | 0.0845 | 0.0897 | 0.0948 | 0.0726 | 0.0905 | 0.0849 | 0.0823 | 0.072 | 0.0466 | 0.0732 | 0.0716 | 0.062 |  | 0.0543 | 0.12
12 | R160Q | 0.0623 | 0.0629 | 0.0847 |  | 0.0791 | 0.0923 | 0.0594 | 0.0899 | 0.0728 |  |  | 0.0655 |  | 0.069 |  | 0.052 | 0.0894
13 | R160T | 0.055 | 0.0657 | 0.085 | 0.0846 |  |  | 0.0848 | 0.0886 |  | 0.0573 |  | 0.0757 | 0.0409 | 0.0817 |  | 0.0676 | 0.123
14 | I167G | 0.0576 | 0.0552 |  | 0.0552 | 0.0662 |  | 0.0531 | 0.056 | 0.053 |  |  | 0.0595 |  | 0.0677 |  |  | 0.0935
15 | T174L | 0.061 |  | 0.0867 |  | 0.104 | 0.093 | 0.0902 |  |  |  | 0.0733 | 0.0501 |  | 0.0678 |  |  | 0.0859
16 | T174R | 0.0638 | 0.0475 |  | 0.0623 | 0.0744 | 0.0851 | 0.0785 | 0.0641 | 0.0666 | 0.0713 | 0.0423 |  |  | 0.0913 |  | 0.0508 | 0.0509
17 | T176P | 0.0653 | 0.0512 | 0.0617 | 0.0392 | 0.0729 | 0.0436 | 0.0652 |  |  | 0.0639 | 0.0624 |  |  | 0.0645 | 0.0532 | 0.0635 | 0.0662
18 | Y179M | 0.067 | 0.0656 |  | 0.0596 | 0.0602 | 0.0442 | 0.0596 | 0.0632 |  | 0.058 | 0.056 | 0.0686 |  | 0.0644 |  |  | 

Row | Variant | area with substrate ENLDFQS | area with substrate ENLNFQS | area with substrate ENLRFQS | area with substrate ENLEFQS | area with substrate ENLFFQS | area with substrate ENLIFQS | area with substrate ENLKFQS | area with substrate ENLLFQS | area with substrate ENLMFQS | area with substrate ENLPFQS | area with substrate ENLQFQS | area with substrate ENLSFQS | area with substrate ENLGFQS | area with substrate ENLHFQS | area with substrate ENLTFQS | area with substrate ENLWFQS | area with substrate ENLVFQS
19 | P184R | 0.0443 |  | 0.0724 |  | 0.0745 |  | 0.0629 |  |  | 0.0066 | 0.05 | 0.0558 |  | 0.0395 |  |  | 
20 | P184Y | 0.0676 | 0.0617 | 0.0674 |  |  | 0.0515 | 0.0544 |  | 0.0638 | 0.0498 |  | 0.0477 | 0.0746 |  |  | 0.0506 | 
21 | N186A | 0.0704 |  |  | 0.059 | 0.0921 |  |  |  |  |  |  |  |  | 0.0568 |  |  | 
22 | N186V | 0.0669 | 0.064 |  | 0.0664 | 0.0719 | 0.0781 | 0.0774 |  |  | 0.065 |  |  |  | 0.059 |  |  | 0.0875
23 | N186Y | 0.0642 | 0.0787 | 0.0633 |  | 0.0871 |  | 0.0854 | 0.0702 |  |  |  |  |  | 0.0604 |  |  | 
24 | E189K | 0.0576 |  |  | 0.0787 | 0.0929 | 0.0723 | 0.0602 | 0.0464 |  |  | 0.101 |  |  | 0.0704 |  |  | 
25 | T192S | 0.048 | 0.0656 |  | 0.0535 | 0.0834 |  | 0.0693 | 0.0991 |  | 0.0971 | 0.0629 |  |  | 0.023 |  | 0.0866 | 0.0683
26 | E195Y | 0.0712 |  |  |  | 0.078 |  | 0.0832 |  |  |  |  |  |  |  | 0.0695 |  | 0.0772
27 | Q197Y | 0.0696 | 0.073 |  |  |  | 0.0741 | 0.0692 |  |  | 0.0757 |  |  |  |  |  |  | 
28 | V200F | 0.0574 | 0.054 |  |  | 0.0997 |  | 0.0731 | 0.0638 | 0.0591 | 0.0627 |  | 0.0503 | 0.0423 | 0.048 |  |  | 0.0779
29 | V200Y | 0.0861 | 0.0698 | 0.0609 | 0.0709 | 0.0609 |  | 0.0621 | 0.0652 | 0.0601 |  |  | 0.0598 | 0.0921 | 0.0757 |  |  | 0.0692
30 | A207C | 0.0078 |  | 0.0679 |  | 0.0771 |  | 0.0591 |  |  | 0.0398 |  | 0.0589 | 0.0603 |  | 0.0622 | 0.0058 | 0.0784
31 | A207M | 0.0465 | 0.0571 |  |  | 0.0785 |  | 0.0605 | 0.0679 |  |  |  | 0.0649 |  | 0.0729 |  |  | 
32 | D208M | 0.0644 | 0.0617 | 0.0374 | 0.0741 | 0.0763 | 0.0598 | 0.0606 | 0.057 | 0.0789 | 0.0564 | 0.0447 | 0.0397 |  | 0.0619 |  | 0.0687 | 
33 | W212E | 0.0569 | 0.0644 |  | 0.0686 | 0.0655 | 0.0117 | 0.055 | 0.0684 | 0 | 0.0559 | 0.0565 |  |  | 0.0327 | 0.0629 | 0.0561 | 0.0574
34 | H215A | 0.0672 | 0.0742 |  | 0.0605 | 0.061 |  | 0.0805 | 0.0592 |  | 0.062 | 0.0658 |  |  |  |  |  | 
35 | K216C | 0.0529 | 0.0726 |  |  | 0.0732 |  |  |  |  |  | 0.074 |  |  |  |  |  | 
36 | K216T | 0.0762 | 0.076 | 0.0717 | 0.0748 | 0.0691 | 0.0803 | 0.0717 |  |  | 0.0625 |  | 0.0759 |  | 0.0659 |  | 0.0896 | 0.0745
